Data published in PubChem BioAssay AID1458 (National Center for Advancing Translational Sciences (NCATS), 2008).
The whole screen tested about 210,000 compounds, of which about 5,900 (2.8%) were called active. Inconclusive means that the source gave no clear call. Such entries were picked first, then a sample of the others. The call rests on the fitted dose curve; in most records, active means well fitted activation curve with a large enough effect; inconclusive means small, poorly fitted or top-dose-only effect; inactive means no such curve, though single readings can be large or run the other way. Potencies beside an inconclusive call are fits to weak or partial responses and may not hold up.
Potency means the concentration at half of the fitted maximal effect; tags describe the fitted curve by direction and shape.

Test: qHTS Assay for Enhancers of SMN2 Splice Variant Expression; further: nearly all actives have a fitted effect of over 55% in size; on activity change, positive = activation: % of control where 0% means no effect
Settings: HEK293 SMN2-luciferase splicing reporter, luminescence, 30-36 h; activity change, positive = activation: at 46.1 µM (top of the series)
Outline: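 HEK293 cells carry an SMN2 […]–luciferase reporter in which exon 7 inclusion puts luciferase in frame. Cells were plated 10-12 h before compound addition, then incubated 30-36 h at 37C. ONE-Glo luminescence was read; sodium butyrate at 4.5 mM final served as control.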
With `Nc1ccc(C(=O)N/N=C/c2ccccc2)cc1` the Potency was inconclusive: 20 µM [activator, single point]. For `Cc1ccc(-n2c(SCc3nc(-c4ccccc4C)no3)nnc2-c2ccncc2)cc1C`, the Potency was inconclusive: 1.12 µM [activator, full curve]. For `O=C1CC(N2CCC(c3nc4ccccc4o3)CC2)C(=O)N1c1cc(Cl)cc(Cl)c1` (configuration not stated), the Potency was inconclusive: 20 µM [activator, single point]. With `CNC(=O)c1ccc(NC(=O)c2nsc3ccccc23)cc1` the Potency was active: 2 µM. With `CC(=O)Nc1c(O)nc(SCC(=O)Nc2ccc(C(C)=O)cc2)[nH]c1=O` the Potency was inconclusive: 35.5 µM [activator, partial curve, poor fit]. With `CN1CCN(c2cc(C(F)(F)F)nc(-c3ccccn3)n2)CC1` the Potency was inconclusive: 35.5 µM [activator, single point]. With `COc1ccc(C(=O)Nc2ccc(Cl)c(Cl)c2)c(OC)n1` the Potency was active: 3.16 µM. For `CCN(CC)C(=O)Oc1ccc2c(=O)c(-c3ccccc3)coc2c1`, the Potency was inconclusive: 11.2 µM [activator, partial curve]. For `CCOC(=O)CSc1nc(-c2ccc(OC)cc2)ns1`, the Potency was “inactive”. For `N#CCCn1cc(C(=O)Nc2ccc([N+](=O)[O-])cc2)c(-c2cc3ccccc3o2)n1`, the Potency was “inactive”. In the case of `Nc1ccc(C(=O)N/N=C/c2sc(N3CCOCC3)nc2-c2ccccc2)cc1`, the Potency is reported as inconclusive: 35.5 µM [activator, single point]. With `COC(=O)Cc1ccc(NC(=S)N2CCN(C)CC2)cc1` the Potency was inconclusive: 22.4 µM [activator, single point]. With `C/C(=N/NC(=O)c1cccs1)c1c(C)[nH]n(-c2nc3ccccc3s2)c1=O` the Potency was active: 11.2 µM. For `O=C(c1ccc(Cl)s1)N1CCc2ccccc21`, the Potency was active: 22.4 µM. For `N/C(=N\OC(=O)c1ccc(Cl)cc1)c1ccc(Cl)cc1`, the Potency was inconclusive: 28.2 µM [activator, single point]. In the case of `CCCCc1c(C)nn(-c2nnc3c4ccccc4n(C)c3n2)c1C`, the Potency is reported as “inactive”. In the case of `O=C(Cn1c(=O)n(Cc2ccc(F)cc2)c(=O)c2sc3ccccc3c21)NCc1ccccc1Cl`, the Potency is reported as “inactive”. In the case of `Cc1cc(C)c(OCC(=O)Nc2cccc(O)c2)cc1C`, the Potency is reported as “inactive”. In the case of `COc1cc(/C=N/Nc2nc3ccccc3[nH]c2=O)ccc1O`, the Potency is reported as inconclusive: 22.4 µM [activator, single point]. For `COc1ccc(-c2cnnc(N/N=C/c3c(C)nn(-c4ccccc4)c3Cl)n2)cc1`, the Potency was inconclusive: 0.224 µM [activator, full curve]. In the case of `CCOCCCNC(=O)c1c(NC(=O)c2cc(=O)c3cc(C)c(C)cc3o2)sc2c1CCC2`, the Potency is reported as inconclusive: 35.5 µM [activator, partial curve]. For `O=c1cc(Cc2ccccc2)[nH]c(=S)[nH]1`, the Potency was inconclusive: 4.47 µM [activator, full curve, poor fit]. For `O=c1[nH]c(N/N=C/c2ccccc2Br)nnc1-c1ccccc1`, the Potency was “inactive”. For `Fc1cccc(Cl)c1CSc1nnc2ccccn12`, the Potency was inconclusive: 11.2 µM [activator, partial curve]. For `Cc1ccc(C(=O)Nc2ccc3c(c2)CCC3)cc1S(=O)(=O)N1CCOCC1`, the Potency was inconclusive: 15.8 µM [activator, partial curve, poor fit]. In the case of `COc1ccc(/C=C/C(=O)C(C(N)=O)=C2SCCS2)cc1`, the Potency is reported as “inactive”. For `CN(C)C(=O)c1c(NC(=O)c2ccco2)sc2c1CCCCC2`, the Potency was “inactive”. In the case of `CCOCC(=O)Nc1nnc(C2CCCCC2)s1`, the Potency is reported as active: 12.6 µM. In the case of `Cc1oc(-c2ccccc2Cl)nc1Cn1cccc1C1=NC(c2ccccc2)CO1` (configuration not stated), the Potency is reported as inconclusive: 35.5 µM [activator, single point]. For `Cn1c(N)c(C(=O)NCc2ccccc2)sc1=S`, the Potency was inconclusive: 6.31 µM [activator, partial curve, poor fit]. In the case of `CCOC(=O)C(C)Oc1nc(Oc2ccccc2)nc(N(C)C)n1` (configuration not stated), the Potency is reported as inconclusive: 35.5 µM [activator, partial curve, poor fit]. With `Cc1cccnc1NC(=O)Nc1cccs1` the Potency was “inactive”. For `CCOC(=O)c1cc2c(ccn2C)n1CC(=O)N(Cc1ccccc1)c1ccccc1`, the Potency was inconclusive: 35.5 µM [activator, single point]. For `C=CCOc1c2ccc(C(=O)NCc3ccc(C)cc3)cc2nn1C`, the Potency was inconclusive: 3.16 µM [activator, full curve, poor fit]. In the case of `COc1ccc(O)c(/C=N/Nc2nc3ccccc3[nH]2)c1`, the activity change, positive = activation is reported as inconclusive: 33.4% [activator]. For `CSc1ccc(CCNC(=O)c2cc3c(-c4ccccc4F)nn(C)c3s2)cc1`, the Potency was “inactive”. With `O=C1CCn2nc(-c3ccc(Cl)cc3)cc2N1` the Potency was active: 12.6 µM. In the case of `CS(=O)(=O)N1CCc2cc(C(=O)Nc3cccc(F)c3)ccc21`, the Potency is reported as active: 11.2 µM. With `Cc1ccc2[nH]c(=O)c(CN(Cc3ccco3)S(=O)(=O)c3c(C)ccc4nsnc34)cc2c1` the Potency was active: 7.94 µM. For `Cc1ccc(C(=O)Cn2nnc3ccccc32)cc1`, the Potency was inconclusive: 25.1 µM [activator, single point]. With `CCOc1ccc(CNc2ccc(CNc3ncn[nH]3)cc2)cc1` the Potency was “inactive”. For `Cc1ccc(C(=O)Nc2nc(-c3ccccc3)ns2)cc1`, the Potency was “inactive”. With `Cc1cc(C)cc(OCC(=O)OCC(=O)c2ccc3c(c2)NC(=O)CO3)c1` the Potency was inconclusive: 3.55 µM [activator, single point]. With `COc1ccc(N(CC(=O)Nc2ccccc2C(=O)NCCc2ccccc2)S(C)(=O)=O)cc1OC` the Potency was inconclusive: 17.8 µM [activator, partial curve]. For `Cc1ccc(C(=O)NCCc2csc(-c3cccnc3)n2)cc1`, the Potency was inconclusive: 15.8 µM [activator, partial curve]. In the case of `CCc1ccc(-n2c(CCC(=O)O)ccc2-c2ccc(F)cc2)cc1`, the Potency is reported as “inactive”. With `Cc1cc(C(=O)N/N=C/C=C/c2ccc3c(c2)OCO3)n[nH]1` the Potency was “inactive”. For `O=C(N/N=C/c1cccc(F)c1)c1csc2c1CCCC2`, the Potency was active: 14.1 µM. In the case of `CC(=NC1CCCCC1)C1=C(O)c2ccccc2C1=O`, the Potency is reported as active: 15.8 µM. For `COc1cc(NC2c3ccccc3C(=O)N2c2cc(C)ccn2)cc(OC)c1OC` (configuration not stated), the Potency was “inactive”. For `CCCCN(C)C(=O)CCCc1c[nH]c2ccccc12`, the Potency was inconclusive: 14.1 µM [activator, single point]. With `CCOC(=O)C1CCCN(Cc2ccccc2C)C1` (configuration not stated) the Potency was inconclusive: 6.31 µM [activator, partial curve, poor fit]. In the case of `CC1CCc2c(C(=O)Nc3nccs3)csc2C1` (configuration not stated), the Potency is reported as inconclusive: 35.5 µM [activator, single point]. With `CCOC(=O)c1nnn(CC(=O)N2N=C(c3ccccc3)CC2c2ccccc2)c1C(=O)OCC` (configuration not stated) the Potency was “inactive”. In the case of `CCCCN(C)C(=O)c1cc2cc3cc(OC)ccc3nc2o1`, the Potency is reported as inconclusive: 12.6 µM [activator, single point]. For `COc1ccc(Cl)cc1NC(=O)c1cc(C)nn1-c1ccccc1`, the Potency was “inactive”. With `Cc1nn(C(C)C(=O)NC2CCC(C)CC2)c(=O)c2cc3sccc3n12` (configuration not stated) the Potency was “inactive”. With `Fc1cccc2sc(N3CCOCC3)nc12` the Potency was inconclusive: 12.6 µM [activator, partial curve]. In the case of `N/C(=N\OCc1ccc([N+](=O)[O-])cc1)c1ccncc1`, the Potency is reported as active: 15.8 µM. For `COc1ccc(C(=O)NCCSc2ccccn2)cc1`, the Potency was active: 2.82 µM. In the case of `Cc1ccc(S(=O)(=O)n2nc(-c3ccc(Cl)cc3)nc2NCc2ccco2)cc1`, the Potency is reported as inconclusive: 5.62 µM [activator, single point]. In the case of `CCSc1ccc2cc(OC)ccc2[n+]1CC`, the Potency is reported as “inactive”. With `CCOC(=O)c1cccc(NC(=O)Nc2ccc(OCC)cc2)c1` the Potency was active: 10 µM. With `CN(C)c1ccnc(Oc2ccc(C(C)(C)C)cc2)c1C#N` the Potency was inconclusive: 5.62 µM [activator, single point]. In the case of `Cc1ccc(C23CC4CC(CC(NC(=O)N5CCN(C)CC5)(C4)C2)C3)cc1`, the Potency is reported as inconclusive: 0.1 µM [activator, full curve, poor fit]. With `Cc1ccc(C(=O)Nc2ccc(C)c(S(=O)(=O)N(C)C)c2)s1` the Potency was active: 12.6 µM. For `CN(C)C(=S)N=Nc1[nH]c2ccccc2c1O`, the Potency was inconclusive: 22.4 µM [activator, partial curve, poor fit]. For `Cc1cccn2c(=O)c3cc(C(=O)N(Cc4ccccc4)C(C)C)sc3nc12`, the Potency was inconclusive: 17.8 µM [activator, single point]. With `Cc1ccccc1N1C(S)=C(C#N)C(=O)NC12CCCCC2` the Potency was inconclusive: 4.47 µM [activator, single point]. With `Fc1ccccc1-n1ncc2c1ncn1nc(Cc3ccccc3)nc21` the Potency was active: 11.2 µM. In the case of `COc1ccc(CNC(=O)C2CSC(=O)C2)cc1` (configuration not stated), the Potency is reported as inconclusive: 5.62 µM [activator, single point]. With `O=C(COC(=O)CCCOc1ccc(Cl)cc1Cl)NCc1ccc(F)cc1` the Potency was inconclusive: 10 µM [activator, partial curve, poor fit]. In the case of `Oc1c(N=NC(=S)Nc2ccccc2F)c2ccccc2n1Cc1ccccc1`, the Potency is reported as “inactive”. With `CCOC(=O)c1cccc(NC(=O)c2cncc(Br)c2)c1` the Potency was inconclusive: 14.1 µM [activator, single point]. With `C[C@H]1CC2[C@@H]3CCC4=CC(=O)C=C[C@]4(C)[C@@]3(F)[C@@H](O)C[C@]2(C)[C@@]1(O)C(=O)CO` (some centres not stated) the Potency was “inactive”. In the case of `CCOC(=O)C1CCCN(C(=O)c2cn(CC(C)C)c(=O)c3cc(OC)c(OC)cc23)C1` (configuration not stated), the Potency is reported as “inactive”. In the case of `Cc1ccsc1CN(C)C(=O)CCc1nnc(COc2ccccc2)o1`, the Potency is reported as inconclusive: 35.5 µM [activator, single point].
